Measured values published in PubChem BioAssay AID504374 (National Center for Advancing Translational Sciences (NCATS), 2011).
Screen size: about 1,500 compounds; about 100 (6.7%) were called active. About 7% were inconclusive and are not listed. The call rests on the fitted dose curve; in most records, active means well fitted inhibition curve with a large enough effect; inconclusive means small, poorly fitted or top-dose-only effect, or effect the other way; inactive means flat fitted curve, though single readings scatter. The list shows a part of the results.

The compounds below were run against Runt-related transcription factor 1 (Homo sapiens) + Core-binding factor subunit beta (Homo sapiens) (UniProt Q01196+Q13951) (assay: qHTS Assay for Compounds Blocking the Interaction Between CBF-beta and RUNX1 for the Treatment of Acute Myeloid Leukemia: Hit Validation). Settings: AlphaScreen CBFb-His/RUNX1-biotin binding; series mostly up to 59.8 µM; activity, negative = inhibition: at the top concentration.
Chain of UniProt Q01196 (Q01196 whole entry, looked up): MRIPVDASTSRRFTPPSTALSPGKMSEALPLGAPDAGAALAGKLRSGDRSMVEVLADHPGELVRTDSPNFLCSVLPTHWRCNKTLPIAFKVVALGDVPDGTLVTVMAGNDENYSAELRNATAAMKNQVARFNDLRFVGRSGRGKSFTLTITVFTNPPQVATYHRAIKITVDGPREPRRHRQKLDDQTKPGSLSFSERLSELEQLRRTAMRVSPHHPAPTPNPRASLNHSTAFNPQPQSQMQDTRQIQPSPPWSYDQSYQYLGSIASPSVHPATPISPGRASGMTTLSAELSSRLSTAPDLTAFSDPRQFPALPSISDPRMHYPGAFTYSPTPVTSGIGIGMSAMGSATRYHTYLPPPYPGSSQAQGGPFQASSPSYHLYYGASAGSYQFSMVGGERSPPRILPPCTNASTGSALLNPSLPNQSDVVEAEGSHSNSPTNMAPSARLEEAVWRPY
Chain of UniProt Q01196 (Q13951 whole entry, looked up): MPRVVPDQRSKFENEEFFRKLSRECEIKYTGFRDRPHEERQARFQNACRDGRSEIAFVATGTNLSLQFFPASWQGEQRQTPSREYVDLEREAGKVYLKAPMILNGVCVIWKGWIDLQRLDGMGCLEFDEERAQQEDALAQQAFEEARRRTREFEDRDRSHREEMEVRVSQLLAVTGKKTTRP
In short: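 Compounds were added to a premixed CBF-beta-His/RUNX1-biotin complex (30 nM each, 20 min) for 15 min. Nickel and streptavidin AlphaScreen beads followed for 90 min at room temperature, with emission at 440 nm […].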
Further: nearly all actives have a fitted effect of over 60% in size.
On the % scale 0 is the no-effect control and ±100 the full control effect; potency means the concentration at half of the fitted maximal effect.

Structure (SMILES) | activity, negative = inhibition | Potency
COc1ccc(NC(=O)c2cccs2)cn1 | inactive: 4.88% | 
CCCCNC(=O)NCCN1CCOCC1 | inactive: 0.241% | 
CSc1cccc(NC(=O)C(=O)NCc2ccccc2)c1 | inactive: -2.4% | 
Cc1csc2ncnc(N3CCN(C(=S)Nc4ccc(F)cc4F)CC3)c12 | inactive: -2.92% | 
CCCCSc1cc(C)nc(N)n1 | inactive: -2.39% | 
COc1ccc(NC(=O)c2cc(S(=O)(=O)N3CCCC3)oc2C)cc1 | inactive: 3.96% | 
CCNc1nc(N)c(C(=O)C23CC4CC(CC(C4)C2)C3)s1 | inactive: -4.49% | 
CCOc1ccc(Nc2c3ccccc3nc3ccccc23)cc1 | inactive: -13% | 
Clc1ccc(Nc2ncnc3c2nnn3Cc2ccccc2)cc1 | inactive: -3.84% | 
CC(C)(C)SCCNS(=O)(=O)c1ccc(C#N)cc1 | inactive: -9.27% | 
O=C(CSc1nc2cc(Cl)c(Cl)cc2[nH]1)c1ccc2c(c1)OCO2 | inactive: 3.05% | 
OC[C@H](O)[C@H](O)[C@@H](O)[C@@H](O)[C@@H]1SC(c2ccccc2)=NN1c1ccccc1 | inactive: -6.14% | 
O=[N+]([O-])c1cccnc1Oc1cccnc1 | inactive: 0.234% | 
CC(C)CC(=O)N=C1SC2CS(=O)(=O)CC2N1Cc1ccccc1Cl (configuration not stated) | inactive: -6.59% | 
Cn1c(N)c(C(=O)Nc2ccc(-c3ccccc3)cc2)sc1=S | inactive: -4.06% | 
CCn1c(NC(=O)C(C)C)c(-c2cccs2)c(=O)c2ccccc21 | inactive: -7.71% | 
Cc1cc2nc(-c3ccccc3)cc(=O)n2[nH]1 | inactive: -8.72% | 
Cc1ccc(S(=O)(=O)NNC(=O)c2cc(C)cs2)cc1 | inactive: -3.52% | 
Fc1ccc(C2=Nn3c(nnc3-c3ccco3)SC2)cc1 | inactive: 4.79% | 
CCc1nc2oc3ccccc3c(=O)c2c(=O)n1-c1ccc(C)cc1 | inactive: -12.1% | 
CCOC(=O)Nc1ccc(C(=O)/C=C/c2ccccc2)cc1 | inactive: -17.5% | 
CC(C)(C)OC(=O)N1CCCN(C(=O)Nc2ccc(C(F)(F)F)cc2)CC1 | inactive: 6.22% | 
NC(=O)C1CCN(C(=O)Nc2csc3ccccc23)CC1 | inactive: 5.62% | 
COc1ccc(/C(C#N)=C/c2ccccn2)cc1 | inactive: 9.94% | 
COc1cccc(NC(=O)C2CC(=O)N/C(=N/NC(=O)c3ccc(C)cc3)S2)c1 (configuration not stated) | inactive: -5.66% | 
CCN1C(=O)[C@@H]2C(C(=O)c3cnccn3)=NN[C@@H]2C1=O | inactive: -8.33% | 

Structure (SMILES) | activity, negative = inhibition | Potency
Cc1cccc(OCC(=O)N(Cc2ccc(N(C)C)cc2)C2CCS(=O)(=O)C2)c1 (configuration not stated) | inactive: -10.5% | 
CCCCC1CCCC12NC(=O)NC2=O (configuration not stated) | inactive: 7.79% | 
Nc1ncccc1OCc1ccc(Cl)c(Cl)c1 | inactive: -2.93% | 
Cn1nc2c3ccccc3n(Cc3ccc(F)cc3)c2nc1=S | inactive: -2.57% | 
COc1ccc(/C=N/OC(=O)c2ccc(Cl)cc2)c(Cl)c1OC | inactive: -5.17% | 
Fc1c(CSC(=S)N2CCOCC2)cccc1CSC(=S)N1CCOCC1 | inactive: -1.55% | 
O=C1NCCc2c1[nH]c1ccccc21 | inactive: 4.02% | 
CCOC(=O)c1ccc(N2CCCCC2)c(NS(=O)(=O)c2ccc(C)cc2)c1 | inactive: 11.4% | 
COc1ccc(Oc2ccc(-c3ccn[nH]3)cc2)cc1 | inactive: -8.28% | 
O=S(=O)(Nc1cccc(CCc2ccccn2)c1)c1ccc(Cl)cc1 | inactive: -2.91% | 
CN(C)C=Nc1ccc(Cl)c(Cl)c1 | inactive: -3.02% | 
O=C(N/N=C/c1ccc2c(c1)OCCO2)c1ccncc1 | inactive: -1.01% | 
CCOC(=O)c1nnn2c1nc(N1CCCCC1)c1ccccc12 | inactive: 4.9% | 
CCN(CC)CC(O)Cn1c(-c2cccc(Cl)c2)nc2cc(C)c(C)cc21 (configuration not stated) | inactive: -10.2% | 
C=CCOc1c(CCC)cc(CCC)cc1C(N)=O | inactive: -2.85% | 
COCCCN1CCN(C2Cc3ccccc3Sc3ccc(Cl)cc32)CC1 (configuration not stated) |  | active: 12.2 µM
CCOC(=O)c1nn(-c2ccc([N+](=O)[O-])cc2)cc1O | inactive: -0.376% | 
COc1nc(C)ccc1-c1noc(-c2cccs2)n1 | inactive: 1.23% | 
COc1cc(/C=N/NC(=O)c2cncc(Br)c2)cc([N+](=O)[O-])c1O |  | active: 2.82 µM
C1=Cc2ccccc2Nc2ccccc21 | inactive: -20.2% | 
N/C(Cc1nc2ccccc2s1)=N\O | inactive: -0.237% | 
COc1cc(NC(=S)N(C)C)c(OC)cc1Cl | inactive: 1.08% | 
Cc1c(-c2ccccc2)[n+](=O)c(-c2ccc(Br)cc2)c(C)n1[O-] | inactive: -4.21% | 
Clc1cc(Cl)cc(Nc2ncnc(-n3cccc3)n2)c1 | inactive: 3.42% | 
CC1=C(C(=O)c2ccccc2)C(c2ccc(O)cc2)NC(=S)N1 (configuration not stated) | inactive: -1.12% | 
O=C(CCCCCCCCCCC(=O)NCc1cccnc1)NCc1cccnc1 | inactive: -0.989% | 

Structure (SMILES) | activity, negative = inhibition | Potency
Cc1cc(C)cc(NC(=O)NCC(O)COc2ccc([N+](=O)[O-])cc2)c1 (configuration not stated) | inactive: 3.3% | 
Cc1onc(-c2c(F)cccc2Cl)c1C(=O)N=C(N)N1CC(C)OC(C)C1 (configuration not stated) | inactive: -0.719% | 
CN(C)/C=C(/C(=O)c1ccc(Cl)c(Cl)c1)c1nnnn1-c1ccccc1 | inactive: -5.14% | 
Nc1ccccc1C(=O)NNC1=C(C(=O)C(F)(F)F)CCC1 | inactive: -4.16% | 
CCOC(=O)Cc1csc(NC(=O)Cc2ccc(Br)cc2)n1 | inactive: -4.76% | 
CCCCCc1ccc(S(=O)(=O)Nc2cc(C)ccn2)cc1 | inactive: 0.248% | 
CCOC(=O)/C(=N/Nc1ccc(OC)cc1)N1CCCc2ccccc21 | inactive: -28% | 
Cc1cc(=O)oc(C)c1C(=O)Nc1ccccc1F | inactive: -0.863% | 
CC(=O)c1ccc(N2CCc3ccccc3C2)c([N+](=O)[O-])c1 | inactive: -30% | 
COc1ccc(CCNC(=S)N(C)C)cc1OC | inactive: -3.03% | 
Cc1onc(-c2ccccc2)c1NC(=O)N(Cc1ccccc1)C(C)C | inactive: -7% | 
C=COC(=O)c1sc2nc(C)cc(C)c2c1N | inactive: -7.98% | 
O=C(CN1CCCC1)OCCCC1CCCCC1 | inactive: -2.64% | 
COc1ccc(C(O)Cn2cc([N+](=O)[O-])nc2C)cc1 (configuration not stated) | inactive: -2.61% | 
COC(=O)c1sccc1NC(=O)CC1C(=O)NCCN1C(=O)c1ccc(F)cc1 (configuration not stated) | inactive: -3.6% | 
Cc1ccc(C2N=C(N)Nc3nc(=O)c4ccccc4n32)cc1 (configuration not stated) | inactive: 3.03% | 
O=C(Nc1ccc(F)cc1)C(=O)c1c(O)[nH]c2ccc([N+](=O)[O-])cc12 | inactive: -2.22% | 
CC1=[N+](C)N(c2ccccc2)C(=O)C1N=C/C=C/c1ccccc1 (configuration not stated) | inactive: 7.59% | 
O=C(c1ccccc1Cl)N1CCSCC1 | inactive: 2.57% | 
CCOC(=O)c1c[nH]n2c(=O)cc(C)nc12 | inactive: -0.182% | 
Cc1csc2c(N3CCC(C(=O)O)CC3)ncnc12 | inactive: -0.429% | 
Nc1nc(-c2ccccc2)c(N=Nc2cccc3ccccc23)s1 |  | active: 1.94 µM
O=C(CSc1ccc(-c2ccccn2)nn1)NCc1ccccc1 |  | active: 5.62 µM
CC(=O)Cc1nnn(-c2cc(C)on2)n1 | inactive: -6.81% | 
Cc1nn(-c2ccccc2)nc1C(=O)NNC(=O)c1cccc2ccccc12 | inactive: -4.94% | 
